Measured values reported in PubChem BioAssay AID504832 (National Center for Advancing Translational Sciences (NCATS), 2011).
Several values for one entry are separate records, joined by “and”; a condition that tells them apart may be missing. Identical values can stand only once. About 18,000 (5.8%) of roughly 310,000 compounds were called active. The shares of active, inactive and inconclusive entries below differ from those in the screen. Calls follow the shape of the dose curve; as a rule, active = well fitted inhibition curve with a large enough effect; inconclusive = small, poorly fitted or top-dose-only effect, or another doubt; inactive = no such curve, though single readings can be large or run the other way. Potencies beside an inconclusive call are fits to weak or partial responses and may not hold up.

Experiment: Primary qHTS for delayed death inhibitors of the malarial parasite plastid, 48 hour incubation
Settings: P. falciparum luciferase growth in erythrocytes; series mostly up to 28.7 µM
Procedure, shortened: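 Growth was read as firefly luciferase luminescence after a 48 h, 37 C, 5% CO2 exposure of compounds to reporter-bearing P. falciparum cultures (0.1% parasitemia, 2% hematocrit final) in Albumax-supplemented RPMI 1640.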
Potency is read from the fitted curve at half-maximal effect; tags tell the direction and shape of the fitted curve.

Structure (SMILES) | Potency
COc1cccc(CN2CCNC(=O)C2CC(=O)N(C)CC2CCOCC2)c1OC (stereo not drawn) | inactive
COC(=O)c1cccnc1-n1c(=O)c2cccnc2n(Cc2ccc(Cl)cc2)c1=O | inconclusive: 13.1 µM [inhibitor, partial curve]
Cn1c(SCC(=O)Nc2ccc(NC(=O)c3cccs3)cc2)nnc1-c1ccncc1 | inactive
CC(C)CN(C(=O)c1ccc(Br)o1)C1CCS(=O)(=O)C1 (stereo not drawn) | inactive
Oc1ccc(C2CNCCc3c2cc(O)c(O)c3Cl)cc1 (stereo not drawn) | inactive and inconclusive: 15.1 µM [inhibitor, single point]
COc1ccc2c(c1)CCc1c(C(=O)N3CCCCCC3)noc1-2 | inactive
Fc1ccc(Cn2nnc(-c3ccc(Cl)cc3)n2)cc1 | inactive
O=C(NNC(=S)NC(=O)c1ccccc1)c1cccnc1 | inconclusive: 18.5 µM [inhibitor, single point]
CC(C)CNC(=O)COC(=O)c1cc(S(=O)(=O)N2CCCCC2)ccc1N1CCOCC1 | inconclusive: 2.33 µM [inhibitor, full curve, poor fit]
CC1CCCCN1CC(=O)Nc1ccc(N2CCCCCC2)cc1 (stereo not drawn) | inconclusive: 18.5 µM [inhibitor, single point]
COc1cc2c(cc1OC)CN(C(=O)c1cc(S(=O)(=O)N3CCOCC3)ccc1Cl)CC2 | inconclusive: 13.1 µM [inhibitor, single point]
O=C(NCCCN1CCOCC1)c1ccc(-n2nc(C(F)(F)F)cc2-c2cccs2)cc1 | active: 9.28 µM
COC(=O)C1=C(C)NC(C)=C(C(=O)OC)C1c1ccc(-c2cccc(Cl)c2Cl)o1 | inconclusive: 16.5 µM [inhibitor, single point]
COc1ccccc1N1C(=O)NC(=O)C(CCc2ccncc2)(CCc2ccncc2)C1=O | inconclusive: 9.28 µM [inhibitor, partial curve]
CCN(CC)S(=O)(=O)c1ccc(C(=O)Nc2nnc(CSC)o2)cc1 | inconclusive: 8.28 µM [inhibitor, partial curve, poor fit]
O=C(c1ccccc1Cc1ccccc1)N1CCN(S(=O)(=O)c2ccccc2F)CC1 | active: 11.7 µM
Fc1ccc(CNC(=S)Nc2ccc(Cl)cc2Cl)cc1 | inconclusive: 18.5 µM [inhibitor, single point]
COc1cc(C(=O)N(Cc2cccc(Cl)c2)C2CCS(=O)(=O)C2)cc(OC)c1OC (stereo not drawn) | inconclusive: 18.5 µM [inhibitor, single point]
CCN(CC)S(=O)(=O)c1ccc(N2CCOCC2)c(NS(=O)(=O)c2ccc(C)c(C)c2)c1 | active: 7.38 µM
Cc1cc(C)cc(OC(C)c2ccnc3nc(/N=C/N(C)C)nn23)c1 (stereo not drawn) | inconclusive: 3.7 µM [inhibitor, full curve]
COc1cccc(NC(=O)[C@H](NC(=O)[C@@H]2Cc3ccccc3CN2)c2ccccc2)c1 | inconclusive: 18.5 µM [inhibitor, single point]
Cn1c(=Nc2ccc(N3CCOCC3)cc2)ccc2ccccc21 | inactive

Structure (SMILES) | Potency
COc1ccc(S(=O)(=O)N(C)C(C)CCc2ccco2)cc1 (stereo not drawn) | inconclusive: 3.29 µM [inhibitor, partial curve]
CC1CCN(C(=S)NC(=O)c2cccc([N+](=O)[O-])c2)CC1 | inactive
CCSc1nc(O)c(CC)c(=O)n1C(C)CC (stereo not drawn) | inconclusive: 3.29 µM [inhibitor, partial curve, poor fit]
Cc1nnc(SC(C)C(=O)Nc2ccc(S(=O)(=O)N3CCCCCC3)cc2)s1 (stereo not drawn) | active: 11.7 µM
CCCC(C)NC(=O)COc1ccc(S(=O)(=O)N2CCCC2)cc1 (stereo not drawn) | inconclusive: 18.5 µM [inhibitor, single point]
COc1ccc(NC(=O)CN2CC(C)OC(C)C2)cc1Cl (stereo not drawn) | inconclusive: 18.5 µM [inhibitor, single point]
O=C(NCC1CCCO1)c1cccc(S(=O)(=O)N(Cc2ccccc2)c2ccccc2)c1 (stereo not drawn) | inconclusive: 0.522 µM [inhibitor, full curve, poor fit]
CCOC(=O)c1cc(-c2ccc(Cl)cc2)nc2c1c(=O)[nH]c(=O)n2CCOC | inconclusive: 13.1 µM [inhibitor, partial curve, poor fit]
Oc1c(C(Nc2cccc(C(F)(F)F)c2)c2cccnc2)ccc2cccnc12 (stereo not drawn) | active: 9.28 µM
Cc1ccc(S(=O)(=O)NCCC(=O)Nc2nnc(C3CC3)s2)cc1C | inconclusive: 10.4 µM [inhibitor, single point]
Cc1ccc(C(=O)OC2CCS(=O)(=O)c3sccc32)cc1 (stereo not drawn) | inconclusive: 0.0657 µM [inhibitor, full curve, poor fit]
CCCCNCc1cc(Br)c(OCC(=O)NCc2ccccc2)c(OC)c1 | inconclusive: 2.33 µM [inhibitor, partial curve, poor fit]
COc1cc(OC)cc(C(=O)NCC2CCCN(Cc3cccc(C(C)=O)c3)C2)c1 (stereo not drawn) | inconclusive: 0.37 µM [inhibitor, full curve, poor fit]
Cc1ccc(S(=O)(=O)N(CC(=O)Nc2ccccc2-c2ccccc2)c2ccc(C)cc2C)cc1 | inconclusive: 14.7 µM [inhibitor, partial curve, poor fit]
COc1cccc(NC(=O)c2ccc(CN3CCc4ccccc4C3)cc2)c1 | inconclusive: 18.5 µM [inhibitor, single point]
CN1CCN(c2ccccc2NC(=O)c2ccc(F)cc2)CC1 | inconclusive: 18.5 µM [inhibitor, single point]
CCN1CCN(c2ccccc2NC(=O)c2ccc(-n3cccn3)cc2)CC1 | inconclusive: 18.5 µM [inhibitor, single point]
O=C(Nc1ncccc1O)c1cccc(S(=O)(=O)NCc2ccccc2)c1 | inactive
O=C(COc1ccccc1)Nc1nc(-c2ccncc2)cs1 | inconclusive: 10.4 µM [inhibitor, partial curve]
COc1ccc(/C=C2\C(=N)N3N=C(CC(=O)N4CCOCC4)SC3=NC2=O)cc1 | inactive
CCOc1ccccc1C1NC(=O)NC(C)=C1C(=O)OC1CCCCC1 (stereo not drawn) | inconclusive: 10.4 µM [inhibitor, single point]
